# Source: the supplement of paper PMC8728848
# The list shows a part of the results.
# B1: MSMEG3662-2a (Mycobacterium smegmatis), A0QYH7_MYCS2 (protein)
# chain: MGDTLTAGQKLERGGSLQSGNGAYTLTLQDDGNLVLYARDKAVWSTGTNGQDVVRAEVQTDGNFVLYTAEKPVWHTDTKGKKEVKLVLQDDRNLVLYAKDGPAWSSKTDTTEPPPPAPEPEKEAEVAPAAAEEAAPAPVAEPAPAEPAPAAPPPAPPAPRTYTVVSGDTLWAIAERFYGDGSKYQQIADASGIANPDLIHPGQVLTIP
# Assays:
# Test in all cases: glycan array binding signal (z-score within array); higher = stronger binding
# Details in all cases: glycan notation: IUPAC condensed, linker removed
# [1] = target: GalNAc(b1-4)GlcNAc
# In short: (§1)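 Glycan array data were curated from 3228 arrays in the Consortium for Functional Glycomics database and kept only where the protein sequence was available. Glycan names were converted to IUPAC-condensed notation, and columns mapping to the same glycan were averaged. The binding signal is a within-array Z-score, averaged across arrays of the same protein sequence at different concentrations or buffers and across linkers. Negative Z-scores can be read as non-binding.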
# [2] = target: GalNAc(b1-4)GlcNAc(b1-2)Man
# In short: as §1
# [3] = target: GalNAc(b1-4)GlcNAc(b1-2)Man(a1-3)[GalNAc(b1-4)GlcNAc(b1-2)Man(a1-6)]Man(b1-4)GlcNAc(b1-4)GlcNAc
# In short: as §1
# [4] = target: GalNAc(b1-4)GlcNAc(b1-3)GalNAc(b1-4)GlcNAc
# In short: as §1
# [5] = target: GalNAc(b1-4)GlcNAc6S
# In short: as §1
# [6] = target: GalNAc(b1-6)GalNAc
# In short: as §1
# [7] = target: GalNAc3S(b1-4)GlcNAc
# In short: as §1
# [8] = target: GalNAc3S(b1-4)GlcNAc3S
# In short: as §1
# [9] = target: GalNAc3S(b1-4)[Fuc(a1-3)]GlcNAc
# In short: as §1
# [10] = target: GalNAc4S6S(b1-4)GlcNAc
# In short: as §1
# [11] = target: GalNAc6S(b1-4)GlcNAc
# In short: as §1
# [12] = target: Glc(a1-4)Glc
# In short: as §1
# [13] = target: Glc(a1-4)Glc(a1-4)Glc(a1-4)Glc
# In short: as §1
# [14] = target: Glc(a1-6)Glc(a1-6)Glc
# In short: as §1
# [15] = target: Glc(a1-6)Glc(a1-6)Glc(a1-6)Glc
# In short: as §1
# [16] = target: Glc(b1-4)Glc
# In short: as §1
# [17] = target: Glc(b1-6)Glc
# In short: as §1
# [18] = target: GlcA(b1-3)Gal
# In short: as §1
# [19] = target: GlcA(b1-3)GlcNAc
# In short: as §1
# [20] = target: GlcA(b1-6)Gal
# In short: as §1
# [21] = target: GlcA3S(b1-3)Gal(b1-4)GlcNAc(b1-2)Man
# In short: as §1
# [22] = target: GlcA3S(b1-3)Gal(b1-4)GlcNAc(b1-3)Gal(b1-4)Glc
# In short: as §1
# [23] = target: GlcNAc(a1-3)Gal(b1-4)GlcNAc
# In short: as §1
# [24] = target: GlcNAc(a1-4)Gal(b1-3)GlcNAc
# In short: as §1
# [25] = target: GlcNAc(a1-4)Gal(b1-4)GalNAc
# In short: as §1
# [26] = target: GlcNAc(a1-4)Gal(b1-4)GlcNAc
# In short: as §1
# [27] = target: GlcNAc(a1-4)Gal(b1-4)GlcNAc(b1-3)Gal(b1-4)Glc
# In short: as §1
# [28] = target: GlcNAc(a1-4)Gal(b1-4)GlcNAc(b1-3)Gal(b1-4)GlcNAc
# In short: as §1
# [29] = target: GlcNAc(a1-4)Gal(b1-4)GlcNAc(b1-3)Gal(b1-4)GlcNAc(b1-3)Gal(b1-4)GlcNAc
# In short: as §1
# [30] = target: GlcNAc(a1-4)Gal(b1-4)GlcNAc(b1-3)Gal(b1-4)[Fuc(a1-3)]GlcNAc(b1-3)Gal(b1-4)[Fuc(a1-3)]GlcNAc
# In short: as §1
# [31] = target: GlcNAc(a1-6)Gal(b1-4)GlcNAc
# In short: as §1
# [32] = target: GlcNAc(b1-2)Gal(b1-3)GalNAc
# In short: as §1
# [33] = target: GlcNAc(b1-2)Man(a1-3)[GlcNAc(b1-2)Man(a1-6)]Man(b1-4)GlcNAc(b1-4)GlcNAc
# In short: as §1
# [34] = target: GlcNAc(b1-2)Man(a1-3)[GlcNAc(b1-2)Man(a1-6)]Man(b1-4)GlcNAc(b1-4)[Fuc(a1-6)]GlcNAc
# In short: as §1
# [35] = target: GlcNAc(b1-2)Man(a1-3)[GlcNAc(b1-4)][GlcNAc(b1-2)Man(a1-6)]Man(b1-4)GlcNAc(b1-4)GlcNAc
# In short: as §1
# [36] = target: GlcNAc(b1-2)Man(a1-3)[GlcNAc(b1-4)][GlcNAc(b1-2)Man(a1-6)]Man(b1-4)GlcNAc(b1-4)[Fuc(a1-6)]GlcNAc
# In short: as §1
# [37] = target: GlcNAc(b1-2)[GlcNAc(b1-4)]Man(a1-3)[GlcNAc(b1-2)Man(a1-6)]Man(b1-4)GlcNAc(b1-4)GlcNAc
# In short: as §1
# [38] = target: GlcNAc(b1-2)[GlcNAc(b1-4)]Man(a1-3)[GlcNAc(b1-4)][GlcNAc(b1-2)Man(a1-6)]Man(b1-4)GlcNAc(b1-4)GlcNAc
# In short: as §1
# [39] = target: GlcNAc(b1-2)[GlcNAc(b1-4)]Man(a1-3)[GlcNAc(b1-4)][GlcNAc(b1-2)[GlcNAc(b1-6)]Man(a1-6)]Man(b1-4)GlcNAc(b1-4)GlcNAc
# In short: as §1
# [40] = target: GlcNAc(b1-2)[GlcNAc(b1-4)]Man(a1-3)[GlcNAc(b1-4)][GlcNAc(b1-2)[GlcNAc(b1-6)]Man(a1-6)]Man(b1-4)GlcNAc(b1-4)[Fuc(a1-6)]GlcNAc
# In short: as §1
# [41] = target: GlcNAc(b1-2)[GlcNAc(b1-6)]Man(a1-6)[GlcNAc(b1-2)Man(a1-3)]Man(b1-4)GlcNAc(b1-4)GlcNAc
# In short: as §1
# [42] = target: GlcNAc(b1-2)[GlcNAc(b1-6)]Man(a1-6)[GlcNAc(b1-2)Man(a1-3)]Man(b1-4)GlcNAc(b1-4)[Fuc(a1-6)]GlcNAc
# In short: as §1
# [43] = target: GlcNAc(b1-2)[GlcNAc(b1-6)]Man(a1-6)[GlcNAc(b1-4)][GlcNAc(b1-2)Man(a1-3)]Man(b1-4)GlcNAc(b1-4)GlcNAc
# In short: as §1
# [44] = target: GlcNAc(b1-3)Fuc
# In short: as §1
# [45] = target: GlcNAc(b1-3)Gal
# In short: as §1
binder,measurement,setting,value
B1,glycan array binding signal (z-score),[1],0.021
same,glycan array binding signal (z-score),[2],-0.076
same,glycan array binding signal (z-score),[3],-0.147
same,glycan array binding signal (z-score),[4],-0.047
same,glycan array binding signal (z-score),[5],-0.096
same,glycan array binding signal (z-score),[6],-0.152
same,glycan array binding signal (z-score),[7],-0.073
same,glycan array binding signal (z-score),[8],0.002
same,glycan array binding signal (z-score),[9],-0.193
same,glycan array binding signal (z-score),[10],0.137
same,glycan array binding signal (z-score),[11],-0.09
same,glycan array binding signal (z-score),[12],-0.086
same,glycan array binding signal (z-score),[13],-0.049
same,glycan array binding signal (z-score),[14],-0.136
same,glycan array binding signal (z-score),[15],-0.182
same,glycan array binding signal (z-score),[16],0.015
same,glycan array binding signal (z-score),[17],-0.107
same,glycan array binding signal (z-score),[18],-0.166
same,glycan array binding signal (z-score),[19],-0.149
same,glycan array binding signal (z-score),[20],-0.102
same,glycan array binding signal (z-score),[21],-0.066
same,glycan array binding signal (z-score),[22],-0.189
same,glycan array binding signal (z-score),[23],-0.054
same,glycan array binding signal (z-score),[24],-0.19
same,glycan array binding signal (z-score),[25],-0.09
same,glycan array binding signal (z-score),[26],0.026
same,glycan array binding signal (z-score),[27],-0.07
same,glycan array binding signal (z-score),[28],-0.131
same,glycan array binding signal (z-score),[29],-0.091
same,glycan array binding signal (z-score),[30],0.237
same,glycan array binding signal (z-score),[31],0.008
same,glycan array binding signal (z-score),[32],-0.084
same,glycan array binding signal (z-score),[33],-0.114
same,glycan array binding signal (z-score),[34],-0.076
same,glycan array binding signal (z-score),[35],-0.102
same,glycan array binding signal (z-score),[36],-0.203
same,glycan array binding signal (z-score),[37],-0.117
same,glycan array binding signal (z-score),[38],-0.197
same,glycan array binding signal (z-score),[39],-0.126
same,glycan array binding signal (z-score),[40],-0.239
same,glycan array binding signal (z-score),[41],-0.123
same,glycan array binding signal (z-score),[42],-0.059
same,glycan array binding signal (z-score),[43],-0.029
same,glycan array binding signal (z-score),[44],-0.141
same,glycan array binding signal (z-score),[45],-0.074
